{
  "source": "PubChem BioAssay AID588342",
  "about": "(National Center for Advancing Translational Sciences (NCATS), 2011)",
  "note": "Among all 360,000 compounds or so, about 25,000 (6.9%) were called active. The shares of active, inactive and inconclusive entries below differ from those in the screen. The call rests on the fitted dose curve; in most records, active means well fitted inhibition curve with a large enough effect; inconclusive means small, poorly fitted or top-dose-only effect; inactive means flat fitted curve, though single readings scatter. Potencies of inconclusive entries are doubtful fits and often do not repeat. Potency means the concentration at half of the fitted maximal effect; tags describe the fitted curve by direction and shape.",
  "data": [
    {"target": "Luciferin 4-monooxygenase (Photinus pyralis) (UniProt P08659)", "sequence (P08659 whole entry, looked up)": "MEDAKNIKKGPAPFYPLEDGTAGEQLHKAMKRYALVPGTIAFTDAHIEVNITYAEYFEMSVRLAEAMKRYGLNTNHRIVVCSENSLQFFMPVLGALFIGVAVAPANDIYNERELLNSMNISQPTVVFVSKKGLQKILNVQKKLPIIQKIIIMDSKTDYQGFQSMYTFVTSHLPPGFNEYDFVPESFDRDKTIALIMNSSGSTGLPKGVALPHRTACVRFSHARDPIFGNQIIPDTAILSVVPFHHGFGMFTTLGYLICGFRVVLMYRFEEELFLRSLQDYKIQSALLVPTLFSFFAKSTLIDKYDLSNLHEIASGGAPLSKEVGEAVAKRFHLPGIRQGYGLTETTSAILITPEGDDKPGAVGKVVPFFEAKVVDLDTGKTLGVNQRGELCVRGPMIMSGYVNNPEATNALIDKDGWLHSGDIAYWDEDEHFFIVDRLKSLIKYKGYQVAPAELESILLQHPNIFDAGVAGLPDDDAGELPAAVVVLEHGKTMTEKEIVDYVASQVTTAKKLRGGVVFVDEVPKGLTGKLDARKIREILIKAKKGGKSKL", "assay": "qHTS profiling assay for firefly luciferase inhibitor/activator using purifed enzyme and Km concentrations of substrates (counterscreen for miR-21 project); further: nearly all actives have a fitted effect of over 55% in size;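 on activity change, negative = inhibition: plate controls were vehicle for no effect and reference inhibitor for full effect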", "details": "purified FLuc, luminescence inhibition; activity change, negative = inhibition: at 57.5 µM (top of the series)", "summary_of_the_method": "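Purified P. pyralis luciferase, 10 nM final, with Km-level 10 uM D-luciferin and 10 uM ATP in 50 mM Tris acetate pH 7.5, 10 mM Mg acetate, 0.01% Tween-20, 0.05% BSA; 6-point qHTS titration about 60 µM downward; luminescence read.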", "values": [
      {"molecule": "Cc1cc(C)n(-c2ccc(C(=O)Nc3ccc4c(c3)OCO4)cc2)n1", "Potency": "active: 13.5 µM"},
      {"molecule": "O=C(/C=C/c1cccc([N+](=O)[O-])c1)Nc1cccc(NC(=O)c2cccs2)c1", "Potency": "inconclusive: 19 µM [inhibitor, partial curve]"},
      {"molecule": "COc1ccc(-c2csc(NC(=O)CSc3nc(SC)ns3)n2)cc1", "Potency": "inconclusive: 37.9 µM [inhibitor, partial curve, poor fit]"},
      {"molecule": "Cc1cc(C)nc(-n2nc(C)c(Oc3ccccc3O)c2C)n1", "Potency": "inconclusive: 26.9 µM [inhibitor, single point]"},
      {"molecule": "O=C(CN1C(=O)S/C(=C/c2ccccn2)C1=O)N1CCOCC1", "activity change, negative = inhibition": "inactive: -1.5%"},
      {"molecule": "Cc1cc2cc(CNC(=O)c3ccc4c(c3)OCO4)ccc2[nH]1", "Potency": "inconclusive: 21.3 µM [inhibitor, single point]"},
      {"molecule": "Clc1cccc(-c2csc(Nc3cccnc3)n2)c1", "Potency": "inconclusive: 4.26 µM [inhibitor, partial curve, poor fit]"},
      {"molecule": "O=C(C[n+]1cccc(/C=N/O)c1)N1CCCc2ccccc21", "activity change, negative = inhibition": "inactive: -1.72%"},
      {"molecule": "CC(=O)c1sc(NC(=O)CCS(=O)(=O)c2ccccc2)nc1C", "Potency": "inconclusive: 37.9 µM [inhibitor, partial curve, poor fit]"},
      {"molecule": "S=C(NCCc1ccccc1)Nc1ccc(Cl)cc1Cl", "Potency": "inconclusive: 21.3 µM [inhibitor, partial curve, poor fit]"},
      {"molecule": "COc1cc(NC(=O)CSc2ncnc3sc4c(c23)CCC(C)C4)c(C(=O)O)cc1OC", "note": "(stereo not drawn)", "Potency": "inconclusive: 26.9 µM [inhibitor, single point]"},
      {"molecule": "O=C(NCc1cccnc1)c1ccc(-c2ccc(Cl)cc2)o1", "Potency": "inconclusive: 30.1 µM [inhibitor, partial curve, poor fit]"},
      {"molecule": "COCCSc1nnc(NC(=O)C2CC(=O)N(c3ccc(C)cc3)C2)s1", "note": "(stereo not drawn)", "Potency": "inconclusive: 30.1 µM [inhibitor, partial curve, poor fit]"},
      {"molecule": "Cc1cc(CSc2nc(C)cc(=O)[nH]2)c2ncccc2c1", "Potency": "inconclusive: 37.9 µM [inhibitor, partial curve, poor fit]"},
      {"molecule": "c1ccc(-n2ncc3c(NCCN4CCCCC4)ncnc32)cc1", "Potency": "active: 19 µM"},
      {"molecule": "Cc1ccccc1CSc1nnc(-c2ccccc2)c(=O)[nH]1", "Potency": "active: 19 µM"},
      {"molecule": "Cc1ccc(N2C(=O)c3ccccc3C2C(=O)c2cc(C)ccc2O)cc1", "note": "(stereo not drawn)", "Potency": "inconclusive: 15.1 µM [inhibitor, partial curve, poor fit]"},
      {"molecule": "CN(C)S(=O)(=O)c1ccc(NC(=S)NC(=O)c2cccs2)cc1", "Potency": "inconclusive: 37.9 µM [inhibitor, single point]"}
    ]}
  ]
}
